Test results taken from PubChem BioAssay AID588342 (National Center for Advancing Translational Sciences (NCATS), 2011).
Hit rate of the full screen: of about 360,000 compounds, about 25,000 (6.9%) were called active. Inconclusive means that the source gave no clear call. Such entries were picked first, then a sample of the others. The call rests on the fitted dose curve; in most records, active means well fitted inhibition curve with a large enough effect; inconclusive means small, poorly fitted or top-dose-only effect; inactive means flat fitted curve, though single readings scatter. Where the call is inconclusive, the potency comes from a doubtful curve fit.

Molecular target: Luciferin 4-monooxygenase (Photinus pyralis) (UniProt P08659)
Chain of UniProt P08659 (P08659 whole entry, looked up): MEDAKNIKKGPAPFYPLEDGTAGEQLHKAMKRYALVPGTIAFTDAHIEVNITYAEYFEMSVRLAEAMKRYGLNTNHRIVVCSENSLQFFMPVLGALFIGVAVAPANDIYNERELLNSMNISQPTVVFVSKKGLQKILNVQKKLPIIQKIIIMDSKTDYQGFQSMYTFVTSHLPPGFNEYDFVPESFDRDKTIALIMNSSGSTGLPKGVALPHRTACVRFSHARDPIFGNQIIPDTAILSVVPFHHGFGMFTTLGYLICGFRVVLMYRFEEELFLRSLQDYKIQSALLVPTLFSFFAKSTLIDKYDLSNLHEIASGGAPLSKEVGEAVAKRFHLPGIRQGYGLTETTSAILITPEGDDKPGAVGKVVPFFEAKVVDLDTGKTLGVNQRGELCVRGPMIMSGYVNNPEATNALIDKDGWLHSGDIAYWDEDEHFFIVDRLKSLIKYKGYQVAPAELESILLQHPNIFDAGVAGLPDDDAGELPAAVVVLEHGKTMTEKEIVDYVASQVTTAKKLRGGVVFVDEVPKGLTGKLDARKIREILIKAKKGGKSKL
Experiment: qHTS profiling assay for firefly luciferase inhibitor/activator using purifed enzyme and Km concentrations of substrates (counterscreen for miR-21 project); further: nearly all actives have a fitted effect of over 55% in size
Conditions: purified FLuc, luminescence inhibition; series mostly up to 57.5 µM
Summary of the method: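 Biochemical qHTS of compounds, final roughly 60 µM downward over six points, against 10 nM purified firefly luciferase using Km concentrations of substrates (10 uM D-luciferin, 10 uM ATP) in Tris acetate pH 7.5 buffer; luminescence output.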
Potency means the concentration at half of the fitted maximal effect; tags describe the fitted curve by direction and shape.

| Compound | Potency |
| --- | --- |
| Cn1nc(C(C)(C)C)cc1C(=O)Nc1nc2c(s1)C(=O)CC(C)(C)C2 | inconclusive: 30.1 µM [inhibitor, partial curve, poor fit] |
| Cc1ccc(-c2nnn(CC(=O)N(Cc3cccs3)C(C(=O)NC3CCCC3)c3ccncc3)n2)cc1 (configuration not stated) | inactive |
| CCOc1ccc(-c2cc(C(=O)NCCCN3CCCC3)c3ccccc3n2)cc1 | active: 12 µM |
| Cc1cc(C)c(NC(=O)C(C)n2c(=O)cc(-c3ccccc3)c3c(C)nn(C)c32)c(C)c1 (configuration not stated) | inactive |
| O=C(c1cc(-c2ccc(F)cc2)on1)N1CCCC1 | active: 2.69 µM |
| O/N=C\c1ccc(-c2ccccc2)o1 | active: 13.5 µM |
| N=C1/C(=C\c2ccc(SCc3ccco3)o2)C(=O)N=C2SC=NN12 | active: 8.49 µM |
| CCOC(=O)CSc1nc2cc(C)ccc2cc1C#N | inconclusive: 19 µM [inhibitor, partial curve, poor fit] |
| COC(=O)c1ccc(OCC2c3cc(OC)c(OC)cc3CCN2C(C)=O)cc1 (configuration not stated) | inactive |
| CCOc1ccc(C(=O)NCC(c2ccc(Cl)cc2)N2CCCCC2)cc1 (configuration not stated) | inactive |
| O=C(NCCc1ccc(Cl)cc1)c1ccc2c(c1)nc1n2CCOC1 | inconclusive: 30.1 µM [inhibitor, partial curve, poor fit] |
| COc1ccc(-c2onc(C)c2C)cc1S(=O)(=O)Nc1cccc(C#N)c1 | inactive |
| CN(C)CCN(Cc1ccco1)C(=O)c1cc2c(s1)-c1ccccc1OC2 | inactive |
| O=C(/C=C/c1ccc2c(c1)OCO2)c1cccnc1 | active: 15.1 µM |
| NC(=O)c1ccc(NC(=O)c2cccc3c2OCCCO3)cc1 | inactive |
| CCCCOc1ccc(OC(=O)c2cccnc2)cc1 | inconclusive: 15.1 µM [inhibitor, partial curve] |
| Cc1ccccc1N=Cc1cc2c(cc1[N+](=O)[O-])OCO2 | inconclusive: 6.75 µM [inhibitor, partial curve] |
| CN(C)C=NC(=O)/C(C#N)=C/c1ccccc1 | inconclusive: 37.9 µM [inhibitor, partial curve, poor fit] |
| O=S(=O)(Nc1nc2ccccc2nc1N1CCc2ccccc2C1)c1ccc(Cl)cc1 | inactive |
| O=C(N/N=C/c1ccc(COc2ccc(Br)cc2)o1)c1ccc2c(c1)OCO2 | inconclusive: 37.9 µM [inhibitor, partial curve, poor fit] |
| Cc1cccc(NC(=O)C2CC(=O)NC(Nc3nc4ccccc4s3)=N2)c1 (configuration not stated) | inactive |
| CCc1ccc(NS(=O)(=O)c2ccc(-c3cc(C)no3)cc2)cc1 | inconclusive: 26.9 µM [inhibitor, partial curve, poor fit] |
| c1ccc(-n2nnnc2SCc2cn3ccccc3n2)cc1 | inactive |
| CCN(CC)C(=O)c1sc(NC(=O)c2ccc3c(c2)OCO3)c(C#N)c1C | inconclusive: 9.53 µM [inhibitor, partial curve] |

| Compound | Potency |
| --- | --- |
| CCCOc1ccccc1/C=C1\SC(N)=NC1=O | inactive |
| CCOc1ccc(-c2cc(C(=O)NC(C)c3ccccc3)c3ccccc3n2)cc1 (configuration not stated) | inconclusive: 8.49 µM [inhibitor, partial curve, poor fit] |
| COc1ccc(COC(=O)C2=C(C)NC(=O)CC2c2cccc(Cl)c2Cl)cc1 (configuration not stated) | inactive |
| CCS(=O)(=O)c1ccc2oc(SCC(=O)c3ccco3)nc2c1 | inconclusive: 19 µM [inhibitor, single point] |
| Cc1nc2cc(-c3ccccc3)[nH]n2c(=O)c1C | active: 13.5 µM |
| O=C(N/N=C/C(Cl)=C/c1ccccc1)c1ccc2c(c1)OCO2 | inconclusive: 3.01 µM [inhibitor, full curve] |
| O=C(/C=C/Sc1ccccc1)c1ccc(Cl)cc1 | active: 1.07 µM |
| O=C(Cn1ncc2c3ccccc3n(Cc3cccc(Cl)c3)c2c1=O)NCCCN1CCCCC1 | inactive |
| C#CCN1C(=O)S/C(=C/C=C/c2ccc(N(C)C)cc2)C1=O | active: 2.69 µM |
| O=[N+]([O-])c1ccc(/C=C2\CCC(C3=CCCC3)=C2N2CCOCC2)cc1 | inconclusive: 4.78 µM [inhibitor, partial curve, poor fit] |
| Cc1ccc(NC(=O)CSc2nc(-c3cccs3)nc3cc(=O)[nH]n23)cc1C | inconclusive: 4.26 µM [inhibitor, partial curve, poor fit] |
| COc1ccc(-c2cn3cccnc3n2)cc1NC(=O)Nc1cc(C)ccc1C | active: 2.39 µM |
| Cc1ccccc1S(=O)(=O)Nc1nc2ccccc2nc1Cl | inconclusive: 16.9 µM [inhibitor, partial curve, poor fit] |
| COC(=O)c1cc(CSc2nc3ccc(C)cc3[nH]2)oc1C | inconclusive: 23.9 µM [inhibitor, partial curve] |
| Cc1ccc(CN2C(=O)S/C(=C\c3ccccc3OCC(=O)O)C2=O)cc1 | inconclusive: 33.8 µM [inhibitor, partial curve, poor fit] |
| Cc1cc(C)n(C(=O)CNC(=O)c2ccccc2Br)n1 | inconclusive: 26.9 µM [inhibitor, partial curve] |
| CCOC(=O)c1csc(CCNC(=O)c2oc3c(Cl)cc(C)cc3c2C)n1 | inconclusive: 26.9 µM [inhibitor, single point] |
| COc1ccc(/C=N/N(c2ccccc2)c2ccccc2)cc1O | inconclusive: 23.9 µM [inhibitor, single point] |
| CCOC(=O)CSc1ccc(C(=O)Nc2ccc(Cl)cc2)cn1 | inconclusive: 8.49 µM [inhibitor, partial curve] |
| COc1ccccc1C(=O)N/N=C/c1cnc2ccccc2n1 | inconclusive: 16.9 µM [inhibitor, partial curve, poor fit] |
| CC(C)(C)c1ccc(C(=O)NCCc2csc(-c3ccc(Cl)cc3)n2)cc1 | inconclusive: 8.49 µM [inhibitor, partial curve] |
| N#C/C(=C\c1ccc(OCc2ccc(Cl)cc2)cc1)C(=O)Nc1cccc(C(=O)O)c1 | inactive |
| CCCCOC(=O)c1ccc(N)cc1 | inconclusive: 30.1 µM [inhibitor, single point] |
